Source: ChEMBL document CHEMBL4888484, “Replenishing the malaria drug discovery pipeline: Screening and hit evaluation of the MMV Hit Generation Library 1 (HGL1) against asexual blood stage Plasmodium falciparum ,using a nano luciferase reporter read-out” (2022)
About 540 (0.36%) of roughly 150,000 compounds showed an effect of 50% or more. Some of the results follow.

System: Plasmodium falciparum
Assay: Primary screen in NF54 nanoGlo assay, in single point, at 2uM, 72h; a lower Z score goes with more inhibition
Assay type: functional, Erythrocyte
Details: timepoint 72 hour

SMILES | % Inhibition | Z score
O=C(C1CCC1)N(Cc1nccn1Cc1cccc(Cl)c1)C1CCCCC1 | -3% | 0.29
Cn1cnnc1CNC1CC(c2ccccc2)C1(C)C (centres undefined) | -10% | 1.56
CC[C@@H](C(=O)N1CCc2nc(N3CCN(C4CCCCC4)CC3)nc(N(C)C)c2C1)c1ccccc1 | -5% | 0.94
CCC(C)NC(=O)C1CCN(c2ccc(F)c(Cl)c2)C1=O (centres undefined) | -14% | 1.68
CC(C)n1cc2c(n1)C[C@@H](NC(=O)c1ccccc1N(C)C)CC2 | 4% | -0.77
O=C(c1cn(C2CCC2)nn1)N1CCc2c(cnn2-c2ccccc2)C1 | 1% | -0.17
CC1CN(c2cccc(F)c2)CCN1C(=O)CC1CCCS(=O)(=O)C1 (centres undefined) | -8% | 1.09
CC(C)S(=O)(=O)NC[C@H](Cc1cccc(F)c1)N1CCCC1=O | -11% | 1.25
Cc1cc([C@]2(C)NC(=O)N(CC(=O)Nc3c(C)cccc3C)C2=O)c(C)o1 | -9% | 1.03
CCOCC(=O)Nc1cccc2c1OCCN2C(=O)COCC | -14% | 1.45
Cc1ccccc1-c1ncc(CN2C[C@H](O)[C@@H](N3CCCCC3)C2)cn1 | -4% | 0.8
CCOc1ccc(CNCCn2cnc(C)c2C)cn1 | -7% | 0.72
COCCN1C(=O)N[C@@](Cc2ccccc2Cl)(C2CCN(C(=O)c3cccs3)CC2)C1=O | -5% | 0.72
CC[C@H]1COCCN1C(=O)c1ccc2c(=O)n(C)cnc2c1 | -8% | 1.58
CCC1(CC)C(NC(=O)Nc2ncncc2OC)CC1OC (centres undefined) | -13% | 1.95
c1ncc2c(n1)CN(Cc1ccc3c(c1)OCCO3)CC2 | 4% | -0.61
COC[C@H]1CN(C(C)=O)CC12CCN(Cc1ccc(Cl)c(F)c1)CC2 | 7% | -0.77
O=C(COc1ccc(Cl)cc1)NCc1cccnc1-c1ccco1 | -12% | 2.21
O=C(NCCN1CCOCC1)c1cn(Cc2cccc(F)c2)nc1OCc1cccc(F)c1 | -4% | 0.46
CCc1nc(C2CCN([C@@H](C)C(=O)Nc3cc(Cl)ccc3OC)CC2)n[nH]1 | 2% | -0.29
COc1ccc(C(=O)NCc2c(C)noc2C)cc1OC1CCN(C(C)C)CC1 | -18% | 2.02

SMILES | % Inhibition | Z score
CCn1cc(S(=O)(=O)NCc2noc([C@@H]3CCCO3)n2)cn1 | -2% | 0.4
O=C(Nc1ccc(-n2cccc(C(=O)NCCCc3ccccc3)c2=O)cc1)c1ccc(F)cc1 | 4% | -0.55
CC1CN(C(=O)CS(=O)(=O)C(C)C)CC(C2CC2)O1 (centres undefined) | 1% | -0.15
O=C(NCC1CC2CCC1C2)c1cnc2[nH]c(=O)[nH]c2c1 (centres undefined) | 5% | -0.87
COc1ccc(N(CCC(=O)Nc2ccn(C)n2)S(=O)(=O)c2ccc(C)cc2C)cc1 | -3% | 0.49
CN(Cc1ccccc1F)C(=O)[C@H]1CC[C@H](Nc2ncccn2)CC1 | -14% | 2.31
CCCCn1c(C)c(CC(=O)NCc2ccncn2)c2c1CCCC2=O | 0% | 0.05
CN(C(=O)[C@H]1CCCO1)c1ncc(Br)s1 | 5% | -0.61
CS(=O)(=O)C1CN(C(=O)c2cc(Br)co2)C1 | -7% | 1.13
COc1cccc(Cl)c1CC(=O)Nc1ncc(C)[nH]1 | 1% | -0.09
O=c1[nH]c(-c2ccc(Cl)cc2)c[n+]2ccccc12 | -16% | 1.87
O=C(Nc1cccn2c(C3CCC3)nnc12)c1ccc(Cl)s1 | -4% | 0.69
COc1cc(OC)cc(C(=O)Nc2cc(-c3cc(C)n(-c4ccc(F)cc4)c3C)nn2-c2ccccc2)c1 | 3% | -0.55
Nc1nc(CNC(=O)CCC(=O)c2cccc3ccccc23)cs1 | -15% | 1.77
CCc1nc2ccccc2n1[C@@H](CC)C(=O)NCCCn1cnnc1 | -14% | 1.86
C=C(C)Cn1c(Cc2cccnc2)nnc1N1CCO[C@H](C(C)C)C1 | -7% | 0.96
O=C(NCC1CCN(C(=O)c2ccc[nH]2)CC1)C1CCCCC1 | 3% | -0.5
C[C@H](Oc1cc(Cl)cc(Cl)c1)C(=O)NCc1cc[nH]n1 | -2% | 0.29
Cc1cnc(C(=O)Oc2ccc(-c3ccccc3)cc2)cn1 | 3% | -0.27
CCOc1cccc(CN(C)c2cnn(C)c2)n1 | -5% | 0.53
CN(C)Cc1ccc(-c2nc(-c3ccccc3)nn2C2CCN(C)CC2)o1 | 4% | -0.43
